Results taken from PubChem BioAssay AID1259400 (National Center for Advancing Translational Sciences (NCATS), 2018).
Hit rate of the full screen: of about 350,000 compounds, about 2,100 (0.6%) were called active. The inconclusive results got no clear call from the source; some entries with a clear call stand among them for comparison.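 How the source made its calls: active means activity change of -60% or lower, but not beyond a set lower limit; inconclusive means change between -60% and -40%, or beyond the set limit; inactive means change above -40%.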 A structure can be active in one record and inactive in another.

Molecular target: Relaxin receptor 1 (Homo sapiens) (UniProt Q9HBX9)
Experiment: qHTS Assay for Antagonists of the Relaxin Receptor RXFP1
Settings: HEK293-RXFP1, relaxin-stimulated cAMP HTRF, 30 min; at 57.5 µM; active compounds read low
On the % scale 0 is the no-effect control and ±100 the full control effect.

Sequence of UniProt Q9HBX9 (Q9HBX9 whole entry, looked up): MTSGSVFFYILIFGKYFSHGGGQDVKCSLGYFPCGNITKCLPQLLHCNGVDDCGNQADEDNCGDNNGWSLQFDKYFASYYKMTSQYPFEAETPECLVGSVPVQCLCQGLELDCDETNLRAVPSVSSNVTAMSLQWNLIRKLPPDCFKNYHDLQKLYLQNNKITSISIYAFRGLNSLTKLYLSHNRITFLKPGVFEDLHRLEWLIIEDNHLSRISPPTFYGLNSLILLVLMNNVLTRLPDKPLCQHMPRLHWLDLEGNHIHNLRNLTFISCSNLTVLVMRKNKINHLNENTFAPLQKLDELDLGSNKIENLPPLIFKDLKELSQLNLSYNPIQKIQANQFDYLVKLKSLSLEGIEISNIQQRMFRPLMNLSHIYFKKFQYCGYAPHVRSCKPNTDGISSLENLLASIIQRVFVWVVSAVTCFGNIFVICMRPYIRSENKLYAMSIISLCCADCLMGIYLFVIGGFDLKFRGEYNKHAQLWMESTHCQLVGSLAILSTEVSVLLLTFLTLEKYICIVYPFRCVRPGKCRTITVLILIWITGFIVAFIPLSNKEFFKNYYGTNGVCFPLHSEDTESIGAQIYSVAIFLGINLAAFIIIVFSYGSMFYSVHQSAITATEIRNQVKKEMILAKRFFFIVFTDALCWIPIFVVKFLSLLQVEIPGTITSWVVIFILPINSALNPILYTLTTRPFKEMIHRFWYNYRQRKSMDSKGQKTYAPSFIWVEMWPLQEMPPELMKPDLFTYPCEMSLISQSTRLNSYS

Structure (SMILES) | activity change, negative = inhibition
COCCCn1c(-c2ccco2)nc2ccccc2c1=O | inactive: 4.55%
CN(c1ccccc1)c1nc(N)c([N+](=O)[O-])c(N2CCCCCC2)n1 | inconclusive: -42.5%
COCCC(=O)Nc1ccc2c(c1)CN(C(=O)CCSC)CC2 | inconclusive: -51.1%
CC(=O)SC[C@@H](Cc1ccccc1)C(=O)NCC(=O)OCc1ccccc1 | inconclusive: -53%
Cc1occc1C(=O)N/N=C/c1ccc(Br)s1 | inactive: -4.46%
Cc1ccc(-c2ccccc2C#N)cc1 | inactive: -7.61%
Cc1[nH]c2ccccc2c1C1=CC(=O)C=CC1=O | inconclusive: -59.5%
COc1cccc(-c2nnc(SC(C(=O)c3c[nH]c4ccccc34)c3ccccc3)n2C)c1 (stereo not given) | active: -77.5%
C=CCc1ccccc1OCc1nc2ccccc2n1CC | inconclusive: -52.4%
O=C(CNC(=O)N1CC(=O)Nc2ccccc21)Nc1ccc(Cl)cc1 | active: -60.9%
COc1ccc(CNCCC(c2ccc3c(c2)OCO3)c2ccccc2OC)cc1 (stereo not given) | active: -72.2%
Nc1ccccc1OCCOCCOc1ccccc1N | inconclusive: -49.9%
Cc1ccc(CCNC(=O)c2c3c(nc4ccccc24)C(=O)N(C2CCCCC2)C3)cc1 | active: -71.6%
COc1ccccc1CNC(=O)c1ccc2c(=O)n(CCCN3CCCC3=O)c(=S)[nH]c2c1 | active: -64.8%
CCCCN(CC)C(=O)CSc1c2c(nc3ccc(Cl)cc13)CCCC2 | inconclusive: -50.3%
CCc1ccc(N(CC(=O)NC2CCCCC2)C(=O)CCC(=O)Nc2ccccn2)cc1 | inactive: 7.45%
CCOC(=O)C1(Cc2ccccc2)CCN(Cc2csc(C(C)=O)c2)CC1 | inconclusive: -52.4%
CCn1c(=N)n(CCOc2ccc(Br)cc2)c2ccccc21 | inconclusive: -48.1%
O=C(NNc1cc(C(F)(F)F)nc2ccccc12)Nc1cccc(Cl)c1 | inconclusive: -46.1%
COc1ccc(CCN2C(=S)N(C)C(=O)C2CC(=O)Nc2ccc(OC)cc2)cc1 (stereo not given) | active: -62.6%
O=[N+]([O-])c1ccc(/C=N/n2c(-c3ccccc3)n[nH]c2=S)cc1 | inconclusive: -59%
Cc1cc(C(C)(C)C)oc1C(=O)N(CC(=O)NC1CCCC1)c1c(C)cccc1C | inconclusive: -41.4%
COc1ccc(O)c(C(=O)c2cnn(C(=O)c3cccc(N(C)C)c3)c2)c1 | inactive: -5.52%

Structure (SMILES) | activity change, negative = inhibition
Cc1cc(NS(=O)(=O)c2ccc(Nc3nc(-c4sc(N)nc4C)cs3)cc2)no1 | inconclusive: -45.2%
CC1CCc2c(cc(-c3ccccc3)n2-c2ccc(C(=O)NC(C)C)cc2)C1 (stereo not given) | inconclusive: -48.5%
O=C(/C=C1\NC2(CCCC2)Cc2ccccc21)C(=O)N/N=C/c1ccc(O)c(O)c1 | inconclusive: -41.6%
O=c1c2c(nc(NCCO)n1CC1CCCCC1)-c1ccccc1CC21CCCC1 | inactive: -0.901%
O=C(NNC(=O)c1ccccc1F)c1ccc(-c2ccc(Cl)cc2)o1 | active: -87.5%
CCC(C(=O)NCCc1ccccc1)n1nc(C)c2sc3ccccc3c2c1=O (stereo not given) | inconclusive: -43.9%
COc1ccc(C2=C(C)C(N3CCC(C(=O)Nc4ccccc4F)CC3)=NS2(=O)=O)cc1 | inconclusive: -42.8%
CCOc1ccc(C2=CS/C(=C(\C#N)c3nnc4n3CCCCC4)N2CC)cc1 | inconclusive: -46.5%
COc1cc(OC)c(NC(=O)c2cc(S(=O)(=O)N3CCOCC3)cn2C)cc1Cl | inconclusive: -55.7%
CCCCNC(=O)CSc1nc2cc3c(cc2c(=O)n1CCCC(=O)NCCc1ccc(OC)c(OC)c1)OCO3 | active: -75.9%
COc1cc(/C=C(\C#N)c2nc3ccccc3[nH]2)ccc1Oc1ccc([N+](=O)[O-])cn1 | inconclusive: -42.1%
CCSc1nnc(SCC(=O)c2c(N)n(C)c(=O)n(C)c2=O)s1 | inconclusive: -49.3%
COc1ccc(CCNCc2ccc(-c3ccccc3)cc2)cc1OC | inconclusive: -43.7%
CCN=c1scc(C)n1/N=C/c1ccc(O)c(O)c1O | inconclusive: -44.6%
COc1cccc(-c2nc(CS(=O)(=O)CC(=O)N3CCN(c4cc(C)ccc4C)CC3)c(C)o2)c1 | inconclusive: -44.3%
O=C(Nc1nc2c(F)cc(F)cc2s1)c1ccccn1 | inconclusive: -51.2%
CCCc1ccc(O)c(N=Cc2cc(Br)cc(OCC)c2O)c1 | inconclusive: -53.5%
CCOc1ccc(/C=C/[N+](=O)[O-])c2ccccc12 | active: -69.5%
CC1CN(c2nc(-c3ccc(Br)cc3)nnc2-c2ccccc2)CC(C)N1 (stereo not given) | inconclusive: -50%
CC1CN(CCCCOc2ccc(Cl)c3ccccc23)CC(C)O1 (stereo not given) | inconclusive: -41.5%
COc1ccccc1Cc1nc2ccccc2nc1SCC(=O)N1CCN(c2ccccc2)CC1 | inactive: -26.6%
CN(C)CCCN(C(=O)c1ccc(S(=O)(=O)N2CCCCCC2)cc1)c1nc2ccc(Br)cc2s1 | inconclusive: -40.4%
